According to the supplement of paper PMC3334620:
Whole data set: some 33,000 sequences, median “E-score (-0.5 to 0.5)” near -0.01, cut for the highest 2% near 0.26. This is one part of the list.

These sequences were tested against Ste12 (UniProt P13574) (assay: PBM E-score (8-mer binding enrichment) (E-score (-0.5 to 0.5)); higher = stronger / more preferred TF binding; most listed sequences are background and not binding sites). Conditions: protein concentration: 200 nM; construct: GST-DNA-binding domain.
Summary of the method: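 Yeast transcription factors carrying a GST tag, as full-length proteins or DNA-binding domains, were produced by PURExpress in vitro transcription/translation. About 100-200 nM protein was applied to universal all-10-mer Agilent arrays, double-stranded by primer extension on fresh or once-stripped slides. Bound protein was detected with fluorescent anti-GST, and scans were normalised with masliner. The Universal PBM Analysis Suite gave each ungapped eight-base word, pooled with its reverse complement, an E-score, a modified Wilcoxon-Mann-Whitney statistic.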

Compared with ATGACTTG, ACTCCAAT is lower in “PBM E-score” value: 0.0878 for the first, -0.0179 for the second.

Compared with GCGTGAAA, TCCTCCAA is lower in “PBM E-score” value: 0.25 for the first, 0.132 for the second.

Going from CTGAACTC to ATGACTGC, the “PBM E-score” value falls from -0.108 to -0.15.

First: GAGTGTGC
Second: GTGCGATA
The “PBM E-score” value of the first is lower: -0.0443 for the first, 0.0306 for the second.

Going from CTGGCAAA to ATCTTCGA, the “PBM E-score” value falls from 0.139 to 0.0611.

Compared with AATACCCG, GCCCACGA is lower in “PBM E-score” value: 0.117 for the first, -0.0962 for the second.

First: AACCGAGC
Second: ATGGCCTC
The “PBM E-score” value of the first is lower: -0.0297 for the first, 0.0146 for the second.

First: AGCGAGTC
Second: AGTGCAAG
The “PBM E-score” value of the first is lower: -0.105 for the first, 0.024 for the second.

First: TACATAAA
Second: GAGCGCCC
The “PBM E-score” value of the first is higher: 0.14 for the first, 0.0499 for the second.

First: CACAATTC
Second: CCTAGGGA
The “PBM E-score” value of the first is higher: 0.127 for the first, -0.184 for the second.

Compared with GAGAATGC, CCCCAAGC is higher in “PBM E-score” value: -0.118 for the first, 0.176 for the second.

Compared with CGGCCGAG, ACAACGCC is higher in “PBM E-score” value: 0.0334 for the first, 0.0444 for the second.

Going from TCAATAGA to AGTCTCCC, the “PBM E-score” value falls from -0.0351 to -0.0537.

First: AGCGGACG
Second: CTCTTCGA
The “PBM E-score” value of the first is higher: 0.129 for the first, -0.152 for the second.

Going from CCGCGAGG to TCAATTCA, the “PBM E-score” value rises from -0.0556 to 0.0749.

Going from GCCTCCTA to GGGCGAGA, the “PBM E-score” value rises from -0.166 to -0.113.

First: CCCTTCCC
Second: CGCTGAAA
The “PBM E-score” value of the first is lower: 0.0687 for the first, 0.251 for the second.

First: AGCTATAT
Second: CATATGAG
The “PBM E-score” value of the first is lower: -0.0275 for the first, 0.221 for the second.

Compared with TAGCCTAA, GTAGGGAC is lower in “PBM E-score” value: -0.126 for the first, -0.242 for the second.

Going from ACTGGTGC to GAGGCGGC, the “PBM E-score” value rises from -0.00656 to 0.0439.

First: ACCAAGAC
Second: ATCCGAAA
The “PBM E-score” value of the first is lower: 0.105 for the first, 0.185 for the second.

Compared with GGCAGGAA, GTACGGTA is higher in “PBM E-score” value: -0.136 for the first, 0.0168 for the second.

First: ACTAAATG
Second: GAGTAAAA
The “PBM E-score” value of the first is lower: -0.0189 for the first, 0.0362 for the second.

Going from AGTGCCAC to AAAACCGG, the “PBM E-score” value rises from -0.323 to 0.246.

First: AAGCTGGG
Second: AGATGTCC
The “PBM E-score” value of the first is higher: -0.0272 for the first, -0.112 for the second.

First: CAGGAAGC
Second: GCGTGCAA
The “PBM E-score” value of the first is higher: -0.0287 for the first, -0.0515 for the second.

Compared with AAGTGCCG, CTAAGACC is lower in “PBM E-score” value: 0.0249 for the first, -0.0709 for the second.

Compared with CTCCATAA, GCTGGACA is lower in “PBM E-score” value: -0.0873 for the first, -0.307 for the second.

Compared with AAAAAACC, AGAGCCAA is lower in “PBM E-score” value: 0.234 for the first, 0.0313 for the second.

Compared with TGGGACCA, AACGTCCA is higher in “PBM E-score” value: -0.101 for the first, -0.0736 for the second.

First: AAGATCTA
Second: CGGATTAG
The “PBM E-score” value of the first is lower: -0.0681 for the first, -0.0231 for the second.

Compared with TCCGCAAA, GCGGCTGA is lower in “PBM E-score” value: 0.178 for the first, -0.214 for the second.

Going from ATTGGCGG to ACCCCAAG, the “PBM E-score” value rises from -0.168 to 0.0115.

Compared with ATCGGACA, CGGAAGCA is higher in “PBM E-score” value: -0.0762 for the first, 0.0387 for the second.

Compared with CCCTATAC, CCCGGTGC is higher in “PBM E-score” value: -0.0594 for the first, 0.0158 for the second.

First: CGTGAATA
Second: GACCTTAC
The “PBM E-score” value of the first is lower: 0.00681 for the first, 0.114 for the second.

Compared with TAGTGAGA, AACTCACG is lower in “PBM E-score” value: 0.217 for the first, 0.0512 for the second.

Compared with GGAGTCCC, CCTATACG is higher in “PBM E-score” value: -0.107 for the first, -0.0498 for the second.

First: TAGTTCAA
Second: AGTGGTCG
The “PBM E-score” value of the first is higher: 0.108 for the first, -0.0168 for the second.

Compared with ATGGAGCG, ATCTAACA is higher in “PBM E-score” value: -0.0832 for the first, 0.122 for the second.

Compared with CCAACGGC, CGGCGGTA is higher in “PBM E-score” value: -0.15 for the first, 0.197 for the second.

Going from GGGAAGGA to GTTATAGA, the “PBM E-score” value rises from -0.139 to -0.0131.

Going from AAAAAATG to CAAAGTGC, the “PBM E-score” value falls from 0.254 to 0.00148.
